Source: PubChem BioAssay AID743279 (National Center for Advancing Translational Sciences (NCATS), 2014)
Hit rate of the full screen: of about 360,000 compounds, about 17,000 (4.7%) were called active. The shares of active, inactive and inconclusive entries below differ from those in the screen. Cut-off read from the data, not from the text of the source: active = activity change below about -50%; inconclusive = mostly about -30% to -49%; inactive = weaker than that.

Experiment: qHTS for Inhibitors of Inflammasome Signaling: IL-1-beta AlphaLISA Primary Screen
Settings: THP-1 LPS/ATP IL-1B secretion, 16 h; at 57.5 µM, stronger effect = lower value
Summary of the method: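 THP-1 cells pretreated 1 hr with compounds (up to 57.5 uM final), then stimulated with LPS (250 ng/mL final) plus ATP (1.25 mM final); secreted IL-1B measured by AlphaLISA after 16 hr, decreased signal indicating inhibition.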
% is set by controls: 0 for no effect and ±100 for the full control effect.

SMILES | activity change
O=C(/C=C/c1ccc(S(=O)(=O)N2CCOCC2)cc1)Nc1ccc(F)c(F)c1F | inactive: -5.49%
O=C(COc1ccccc1)Nc1cccc(S(=O)(=O)N2CCCC2)c1 | inactive: -2.36%
O=C(c1ccc(S(=O)(=O)c2ccccc2Cl)c([N+](=O)[O-])c1)N1CCN(Cc2ccccc2)CC1 | active: -110%
CC(C)CSc1oc(-c2ccco2)nc1S(=O)(=O)c1ccccc1 | inconclusive: -36.6%
Cn1c(SCc2nc(-c3ccc(Cl)cc3)no2)nnc1-c1cccs1 | inconclusive: -30.2%
Cc1ccc(C2/C=C\CC(NC(=O)OCC3c4ccccc4-c4ccccc43)CC(=O)N2Cc2ccccc2)cc1 (stereo not drawn) | inconclusive: -39.6%
COc1ccc2sc(N(CCCN(C)C)C(=O)c3ccc(S(=O)(=O)N(C)C4CCCCC4)cc3)nc2c1 | active: -72.4%
Cc1cccc(OCC(=O)Nc2ccc3c(c2)nc(CCN2CCCCC2)n3C)c1 | active: -50.3%
O=C(Nc1cccc(S(=O)(=O)N2CCCCC2)c1)Nc1ccc(Cl)cc1Cl | active: -86.9%
COc1ccc(/C=N\NC(=O)c2cc(O)c(O)c(O)c2)cc1CN1CCN(c2ccc(F)cc2)CC1 | inactive: 20.9%
COC(=O)c1ccc(OCC(O)CN2C(=O)c3ccccc3S2(=O)=O)cc1 (stereo not drawn) | inconclusive: -39.4%
CC(C)c1ccc(OCC(O)CNC(C)c2ccccc2)cc1 (stereo not drawn) | active: -85.5%
CC(c1cccs1)N(Cc1ccco1)C(=O)Nc1ccc(Cl)c(Cl)c1 (stereo not drawn) | inconclusive: -35.8%
Cc1ccc(-n2c(C)nnc2SCC(=O)NNC(=O)c2ccco2)cc1 | inactive: -8.04%
CCOc1ccc(N(CC(=O)NC2CC3CCC2C3)S(=O)(=O)c2ccccc2)cc1 (stereo not drawn) | inactive: -2.77%
O=[N+]([O-])c1cc2cccnc2c2ncccc12 | inactive: 89.6%
COc1ccc(C(NC(=O)C2CCN(CCCOc3ccccc3)CC2)c2cccs2)cc1 (stereo not drawn) | active: -56.4%
O=C(OCc1ccccc1)/C(=C/c1ccc(Cl)cc1)NC(=O)c1ccccc1Cl | inactive: 0%
Cc1ccc(CN2CC(C(=O)N(Cc3nnc(-c4ccccc4Cl)o3)C3CC3)CC2=O)cc1 (stereo not drawn) | inconclusive: -34.7%
Cc1ccc(C)c(S(=O)(=O)NCc2ccc(C(=O)N3CCC(Cc4ccccc4)CC3)cc2)c1 | active: -57.5%
Nc1c(C(=O)NCc2ccc3c(c2)OCO3)nnn1-c1ccc(OC(F)(F)F)cc1 | inconclusive: -35.6%

SMILES | activity change
COc1ccc(C(C#N)=C2C=C(Cl)C(=NO)C=C2Cl)cc1 | inactive: -5.86%
N#C/C(=C\c1cn(-c2ccccc2)nc1-c1cccnc1)c1nnc2n1CCCCC2 | active: -61.1%
Cc1ccc(S(=O)(=O)Nc2ccc(-c3nnc(SCc4ccccc4Cl)o3)cc2)cc1 | inconclusive: -49.4%
CS(=O)(=O)n1nc(OC(=O)c2cccc3ccccc23)cc1N | active: -56.6%
CC(C)C[C@@H](CN1CCC[C@@H]1CN1C(=O)C(=O)NC[C@@H]1Cc1ccccc1)N1C[C@H](Cc2ccc(O)cc2)N(CC2CCCCCC2)C(=O)C1=O | active: -71.8%
Cc1ccc(C)n1-c1nnc(N2CCC(C(=O)N3CCN(C)CC3)CC2)s1 | inconclusive: -34.5%
C#CCn1c(S(=O)(=O)Cc2ccc(F)cc2)nc(-c2ccccc2)c1-c1ccccc1 | inconclusive: -37.7%
CCOC(=O)[C@@H](NC(=O)/C=C/[C@H]1O[C@@H](n2ccc(=O)[nH]c2=O)[C@H](O)[C@@H]1O)C(C)C | inactive: 10.9%
NC(CSC(c1ccccc1)(c1ccccc1)c1cccc2ccccc12)C(=O)O (stereo not drawn) | active: -50.2%
CCOc1ccc2nc(NC(=O)C3CCN(C(=O)c4ccco4)CC3)sc2c1 | inconclusive: -35.4%
Cc1cccc(C)c1NC(=O)C1C(c2ccc3c(c2)OCO3)=Nc2ccccc2N1C(=O)c1cccc(C(F)(F)F)c1 (stereo not drawn) | active: -57%
C/C=C(\C)C(=O)N1CC2(CC(c3cccc(NC(=O)CCCCC)c3)=NO2)C[C@@H]1C(N)=O (stereo partly drawn) | inconclusive: -31.6%
Cc1cccc(C(=O)N[C@H](C(=O)Nc2nc3ccc(S(C)(=O)=O)cc3s2)C(C)C)c1 | inconclusive: -47.2%
Cc1ccccc1C(c1ncccc1C)N(C)C(=O)C1CCN(CCOc2ccc(Cl)cc2Cl)CC1 (stereo not drawn) | inconclusive: -46%
CCN1CCCc2cc(CN(CCN3CCOCC3)C(=S)Nc3cccc(Cl)c3)ccc21 | inconclusive: -33.2%
Cc1nn(-c2ccccc2)c(C)c1C(=O)OCC(=O)NC(=O)NC1CCCC1 | inconclusive: -33.8%
CCOCCCn1c(=N)c(C(N)=S)cc2c(=O)n3cccc(C)c3nc21 | inactive: -11%
CON(C)C(=O)CC1(CN(Cc2ccccc2)C(=O)OC(C)(C)C)CCCCC1 | inactive: 14.6%
O=C(CN1CCN(Cc2ccc(Cl)cc2)CC1)N1CCc2ccccc21 | inconclusive: -47.7%
CCC(CC)COC(=O)C1=C(C)NC(=O)NC1c1ccc(OC)cc1 (stereo not drawn) | inconclusive: -30.6%
CCOC(=O)c1cc(CC)sc1NC(=O)C1CC(=O)NN1Cc1ccccc1 (stereo not drawn) | active: -60.3%

SMILES | activity change
Cc1cc(C(=O)CSc2nnc(-c3ccco3)o2)c(C)n1CC1COc2ccccc2O1 (stereo not drawn) | inconclusive: -30.6%
Cc1ccc(C(O)P(=O)(OC2CCCCC2)OC2CCCCC2)cc1 (stereo not drawn) | inconclusive: -33.4%
CS(=O)(=O)N(CC(=O)Nc1ccc(C(N)=O)cc1)C1CCCCC1 | inconclusive: -48.8%
O=C(Nc1ncnc2c1ncn2[C@@H]1O[C@H](/C=C/C(=O)N2CCN(c3ccc(F)cc3)CC2)[C@@H](O)[C@H]1O)c1ccccc1 | inconclusive: -37%
Cc1cccc([N+](=O)[O-])c1NC(=O)CN(Cc1ccccc1)Cc1ccccc1 | inconclusive: -38.7%
O=C(/C=C/c1ccc2c(c1)OCO2)c1ccc[nH]1 | active: -94.7%
COc1cccc(C(=O)NCCSc2ccc(Br)cc2)c1 | inconclusive: -47%
Cc1ccccc1C(=O)Nc1ccc2c(c1)CCCN2C(=O)c1cccs1 | inconclusive: -35.8%
COc1ccc2c(C)nc(N/C(N)=N/S(=O)(=O)c3ccc(C)cc3)nc2c1 | inconclusive: -32.1%
CCCc1c(C(=O)N/N=C/c2c[nH]c3ccccc23)nnn1-c1nonc1N | inactive: 16.6%
CC(=O)c1cccc(NC(=O)COC(=O)c2ccc(S(C)(=O)=O)c([N+](=O)[O-])c2)c1 | active: -89.3%
CN(C)CCCN=Cc1c(O)n(Cc2ccccc2)c(=O)c2ccccc12 | inconclusive: -31.7%
CCCCCCCCCCn1ccc(=N)cc1 | active: -95.1%
CCOC(=O)C(=O)Nc1cc(C)on1 | inactive: 0%
C[C@@H]1CN([C@@H](C)CO)C(=O)c2cccc(NC(=O)c3ccncc3)c2O[C@@H]1CN(C)Cc1ccc(-c2ccccc2)cc1 | inconclusive: -41%
COc1ccc(OCC(=O)N2CCN(C(=O)c3ccc(F)cc3)CC2)cc1 | inactive: 7.06%
OCCC1CN(Cc2ccccc2-c2ccco2)CCN1Cc1ccccc1 (stereo not drawn) | inactive: -9.73%
C/C(=N\NC(=O)c1cc(Br)ccc1O)c1cccs1 | inconclusive: -35.6%
CCOc1ccc(OCCC(=O)OCC(=O)NCCc2ccc(S(N)(=O)=O)cc2)cc1 | inactive: 0%
O=C1/C(=C/c2ccsc2)N2CCC1CC2 | inactive: -21.1%
O=C(NC1CCCCC1)C(c1ccncc1)n1c(=O)c(-c2ccccc2)nc2ccccc21 (stereo not drawn) | inactive: 2.76%

SMILES | activity change
COc1ccc(Cn2c(=O)oc3ccc(C)cc32)cc1OC | inactive: 9.79%
CC(C)N(CCC(=O)c1ccc2ccccc2c1)Cc1ccccc1 | inconclusive: -40.1%
CCCCNCCOCCSc1ccc(Cl)cc1 | inconclusive: -39.5%
CC(C)(C)c1cc(C(=O)NNS(=O)(=O)c2ccccc2)n[nH]1 | inconclusive: -31.3%
Cc1ccccc1N1CCN(c2ncnc3c2cnn3Cc2ccc(Cl)cc2)CC1 | inconclusive: -40.4%
O=C(NCC(=O)N1CCN(Cc2ccccc2)CC1)c1ccc(Cl)cc1 | inconclusive: -37.4%
COc1ccccc1N1CCN(Cc2cc3c(cc2Br)OCCO3)CC1 | inconclusive: -35.4%
CCCCSc1nc2sc3c(c2c(=O)n1-c1ccc(C)cc1)CCN(C)C3 | inconclusive: -47.3%
O=C(Nc1ccc2oc(-c3ccccc3F)nc2c1)c1ccc2c(c1)OCCO2 | active: -53.7%
Cc1ccc(C(=O)c2c(NC(=O)CSc3nnc(N)s3)sc3c2CCCC3)cc1 | active: -71.5%
Clc1ccc(OC2CCN(Cc3nc(CC4CC4)no3)CC2)cc1 | inconclusive: -47%
CCOC(=O)c1sc2nc3c(cc2c1N)C(=O)CC(C)(C)C3 | inconclusive: -40.6%
O=C(O)CCSc1nnc(CNc2ccc(Cl)cc2)n1Cc1ccccc1 | inactive: 17.8%
Cc1c(/C=N/O)sc2ccccc12 | inconclusive: -30.9%
O=[N+]([O-])c1ccc(C2(O)CN(c3ccccc3)C3=[N+]2CCS3)cc1 (stereo not drawn) | inconclusive: -47.2%
CCCC1=NN(c2ccc([N+](=O)[O-])cc2)C(=O)/C1=C\N(C)C | inactive: 0%
Cc1ccccc1CC1CCN(CCCNC(=O)Nc2ccccc2)CC1 | inconclusive: -30.1%
O=C(O)c1ccc(NC(=S)NC(=O)c2ccc(-c3ccccc3)cc2)cc1 | inconclusive: -41.8%
O=C1NC[C@H](CCCCN2C[C@@H](Cc3ccccc3)N(CCC3CCCCC3)C(=O)C2=O)N(CCC2CCCCC2)C1=O | inconclusive: -39.6%
CC(C)c1ccc(NCCC(=O)c2cccs2)cc1 | inactive: -26.1%
